Source: the CheMixHub viscosity set
The source gives many values for each of these; only a part stands here.

Test: xn = mol fraction of the nth substance listed

O=C([O-])c1ccccc1O.[Na+] + O
viscosity [mPa·s], 101 kPa
Details | x1 = 0.000472 | x1 = 0.000925 | x1 = 0.00135 | x1 = 0.0018 | x1 = 0.00224 | x1 = 0.002647 | x1 = 0.003578 | x1 = 0.005317 | x1 = 0.007012
298.15 K | – | – | – | – | – | – | 0.9644 | 0.9997 | 1.034
303.15 K | 0.8064 | 0.8145 | 0.822 | 0.8299 | 0.8377 | 0.8449 | 0.8611 | 0.8912 | 0.9202
308.15 K | 0.727 | 0.734 | 0.7405 | 0.7472 | 0.7539 | 0.7598 | 0.774 | 0.7998 | 0.8245
313.15 K | 0.6596 | 0.6658 | 0.6714 | 0.6771 | 0.6828 | 0.688 | 0.6999 | 0.7222 | 0.7436
318.15 K | 0.6033 | 0.6087 | 0.6135 | 0.6185 | 0.6234 | 0.6279 | 0.638 | 0.657 | 0.6754

COC(=O)OC + CO
101.3 kPa
Details | viscosity [mPa·s]
303.15 K, x1 = 0.6832 | 0.48
303.15 K, x1 = 0.8119 | 0.496
303.15 K, x1 = 0.8969 | 0.512
303.15 K, x1 = 0.9581 | 0.525
313.15 K, x1 = 0.0648 | 0.437
313.15 K, x1 = 0.1008 | 0.434
313.15 K, x1 = 0.1978 | 0.428
313.15 K, x1 = 0.3027 | 0.426
313.15 K, x1 = 0.3928 | 0.428
313.15 K, x1 = 0.4855 | 0.429
313.15 K, x1 = 0.5738 | 0.437
313.15 K, x1 = 0.7009 | 0.444
313.15 K, x1 = 0.7838 | 0.451
313.15 K, x1 = 0.9029 | 0.471
313.15 K, x1 = 0.9283 | 0.476

NC=O + O
viscosity [mPa·s], 101 kPa
Details | 293.15 K | 303.15 K | 313.15 K | 323.15 K
x1 = 0.0753 | – | 0.886 | 0.734 | 0.621
x1 = 0.1519 | – | 0.973 | 0.811 | 0.688
x1 = 0.2309 | – | 1.073 | 0.898 | 0.788
x1 = 0.2959 | – | 1.182 | 0.988 | 0.84
x1 = 0.3852 | – | 1.306 | 1.089 | 0.924
x1 = 0.4854 | 1.814 | 1.473 | 1.227 | 1.042
x1 = 0.5652 | 2.035 | 1.631 | 1.353 | 1.144
x1 = 0.6138 | 2.162 | 1.743 | 1.441 | 1.22
x1 = 0.6924 | 2.401 | 1.932 | 1.586 | 1.343
x1 = 0.7676 | 2.692 | 2.145 | 1.757 | 1.477
x1 = 0.8175 | 2.93 | 2.313 | 1.891 | 1.574
x1 = 0.9254 | 3.418 | 2.661 | 2.155 | 1.784
